Reference: US4971965A, “Antibiotics TAN-1057” (Takeda Chemical Industries, Ltd., priority 1988, dated 1990)
Values after ≈ are worked out from the molar mass of the structure shown.

Tested on: Pseudomonas aeruginosa C141V
Assay type: cell-based
Details: read-out: Minimum Inhibitory Conc. (MIC)
Method: (Note 1) Measurement was conducted by employing a medium consisting of DY
medium [Bacto Antibiotic Medium 3 (Difco Laboratories, USA)(17.5 g), Bact
yeast extract(Difco Laboratories, USA)(5.0 g) and distilled water(pH
unadjusted)(1000 ml)], using approximately 10^6 colony forming unit/m
of inoculum, by means of the agar dilution method.

Q: For `CN(C(=O)C[C@@H](N)CCCNC(=N)N)[C@H]1CNC(NC(N)=O)=NC1=O` [TAN-1057A], which MIC is on record?
A: 6.25 µg/mL (≈ 17.6 µM)

Q: How did the MIC turn out when `CN(C(=O)C[C@@H](N)CCCNC(=N)N)[C@@H]1CNC(NC(N)=O)=NC1=O` [TAN-1057B] was run?
A: 25 µg/mL (≈ 70.3 µM)

Q: For `CN1C(=O)C[C@H](CCCNC(=N)N)NC(=O)[C@H]1CNC(=N)NC(N)=O` [TAN-1057C], which MIC is on record?
A: 50 µg/mL (≈ 141 µM)

Q: How did the MIC turn out when `CN1C(=O)C[C@H](CCCNC(=N)N)NC(=O)[C@@H]1CNC(=N)NC(N)=O` [TAN-1057D] was run?
A: 1.25 µg/mL (≈ 3.52 µM)
